From PubChem BioAssay AID485344 (National Center for Advancing Translational Sciences (NCATS), 2010)
Hit rate of the full screen: of about 340,000 compounds, about 6,900 (2%) were called active. No stated cut-off is given here; in the data, active means inhibition above about 30%; inactive means below that, where a call was filed. The entries are a selection whose mix differs from that of the whole data set. Where no call is shown, the source filed none.

Molecular target: D(2) dopamine receptor (Homo sapiens) (UniProt P14416)
UniProt P14416, sequence (P14416 whole entry, looked up): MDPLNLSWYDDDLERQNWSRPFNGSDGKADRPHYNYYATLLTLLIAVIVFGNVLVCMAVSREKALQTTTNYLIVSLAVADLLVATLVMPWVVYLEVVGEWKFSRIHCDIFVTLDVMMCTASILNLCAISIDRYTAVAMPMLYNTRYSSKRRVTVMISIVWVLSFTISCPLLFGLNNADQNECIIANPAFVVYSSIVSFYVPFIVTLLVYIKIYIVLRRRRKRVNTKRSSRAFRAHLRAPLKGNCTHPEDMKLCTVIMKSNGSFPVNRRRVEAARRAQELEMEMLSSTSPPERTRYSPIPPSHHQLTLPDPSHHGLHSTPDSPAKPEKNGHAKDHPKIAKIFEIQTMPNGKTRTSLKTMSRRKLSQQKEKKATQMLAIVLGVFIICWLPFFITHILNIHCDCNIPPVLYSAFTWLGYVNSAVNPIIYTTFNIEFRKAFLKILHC
Assay: HTS Assay for Allosteric Antagonists of the Human D2 Dopamine Receptor: Primary Screen for Antagonists; further: 0% is about no effect
Details: HEK293 TREx D2 cells, calcium flux, dopamine EC80; at 10 µM; stronger effect = higher value
In short: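 Dopamine at EC80 is the agonist stimulus; test compounds precede it by 180 s. Calcium flux read kinetically in a force-coupled, inducible HEK293 T-REx D2 cell line.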

Structure (SMILES)	inhibition
CCN(CC)c1nc2ccccc2nc1C(=O)Nc1cccc(C(C)=O)c1	24.4%
CCSC1=NC2(CCN(C(=O)NC3CCCCC3)CC2)N=C1c1ccc(Cl)cc1	-7.16%
O=C(NCCCN1CCN(c2ccc(F)cc2)CC1)c1ccc2nc(Cc3ccccc3)oc2c1	-19.1%
CCOCCc1nn2c(=O)cc(COC(=O)C3CCCCC3)nc2s1	8.44%
CCOC(=O)c1c(C)[nH]c(C)c1S(=O)(=O)N1CCCC(C(=O)N2CCN(c3ccccc3)CC2)C1 (stereo unspecified)	13.2%
Cc1ccc2c(=O)cc(C(=O)Nc3cccc(C(F)(F)F)c3)oc2c1C	12.3%
Cc1cccn2c(=O)c3cc(C(=O)NC(C)c4ccccc4)c(=N)n(CCCO)c3nc12 (stereo unspecified)	-4.55%
Cc1ccc(NC(=O)CSc2nnc3scc(-c4ccccc4)n23)cc1	6.65%
COC(=O)c1ccc(OCC2c3cc(OC)c(OC)cc3CCN2C(=O)c2ccc(F)cc2)cc1 (stereo unspecified)	0.973%
COCCCNc1oc(-c2ccc(COc3ccc(Cl)cc3)o2)nc1C#N	-1.24%
CCCCCNC(=O)CCCCCn1c(=O)[nH]c2ccsc2c1=O	-8.94%
O=C(Nc1sc2c(c1C(=O)NCC1CCCO1)CCC2)c1cc(=O)c2ccccc2o1 (stereo unspecified)	-11.3%
COc1ccc(CNC(=O)C2CCN(c3nc4ccccc4[nH]3)CC2)cc1OC	-5.26%
CCn1cc(C(=O)OCC(=O)Nc2cccc(C(C)=O)c2)c(=O)c2ccc(C)nc21	-7.1%
CCOc1ccc(C2CC(=O)Nc3c2c(=O)nc(SCc2ccccc2C)n3C)cc1OC (stereo unspecified)	-5.84%
COc1ccc(Cn2c(=O)c3oc4ccccc4c3n(Cc3ccc(Cl)cc3)c2=O)cc1	-10.9%
COc1cccc(NC(=O)CC2NCCNC2=O)c1 (stereo unspecified)	12.2%
S=c1[nH]c(-c2ccccc2)cn1/N=C/c1ccc(Br)cc1	active: 36.5%
CC(Nc1c[nH]c(=O)[nH]c1=O)c1ccccc1 (stereo unspecified)	active: 69.1%
COc1ccc(C(=O)NCC(c2ccc(N(C)C)cc2)N2CCc3ccccc32)c(OC)c1 (stereo unspecified)	5.06%
CCc1cc(C(=O)Nc2cnn(Cc3ccccc3C)c2)no1	15.3%
COc1ccc(-c2nc3c(C#N)c[nH]n3c2NC2CCCC2)c(OC)c1	-3.79%
Cc1ccc(NC(=O)CCc2c(C)nc3cc(-c4ccccc4)nn3c2C)cc1F	1.56%
Cc1ccc2c(=O)cc(C(=O)Nc3sc4c(c3C(=O)NCc3cccnc3)CCCC4)oc2c1C	-3.95%

Structure (SMILES)	inhibition
Cc1cc(C)cc(C(=O)NCC(=O)OCN2C(=O)c3ccccc3C2=O)c1	active: 44.1%
Cc1cc(C(=O)OCC(=O)Nc2cc(S(=O)(=O)N(C)C)ccc2C)c2ccccc2n1	active: 36.9%
COc1ccc(C2N(C(=O)N(C)C)CCN2S(=O)(=O)c2ccc(OC)cc2)cc1 (stereo unspecified)	active: 37%
COc1ccc(Cn2ccc3nc(C)c(C(=O)NCc4ccc(F)cc4)cc3c2=O)cc1	23.1%
Cc1ccc(Cl)cc1N1CCN(Cc2nnc(-c3ccc4c(c3)OCO4)o2)CC1	-0.854%
Cc1cc(NC(=O)C2CCN(S(=O)(=O)c3ccc(Br)s3)CC2)ccc1Br	10.4%
Cc1ccc(CNC(=O)CSc2n[nH]c(-c3ccc(F)cc3)n2)cc1	-8.04%
O=S(=O)(c1ccc2nc(N3CCN(c4cccc(Cl)c4)CC3)ccc2c1)N1CCCCC1	-3.54%
CCN(CC)c1ccc(-c2nc(-c3ccccc3C)no2)cc1[N+](=O)[O-]	17.6%
Cc1ccc(Nc2nc(C)nc(N)c2S(=O)(=O)c2ccccc2)cc1	-2.08%
Cc1ccc(C)c(Cn2c(C3CC(=O)N(c4ccccc4C)C3)nc3ccccc32)c1 (stereo unspecified)	-8.01%
CC1=C(C(=O)Nc2ccccc2)C(c2cccn2C)n2ncnc2N1 (stereo unspecified)	9.9%
COc1ccc(Cn2c(=O)c3oc4ccccc4c3n(CC(=O)Nc3ccc(F)cc3F)c2=O)cc1	5.32%
CCN(CC)c1ccc(NS(=O)(=O)c2cc3[nH]c(=O)c(=O)[nH]c3cc2C)c(C)c1	-5.86%
Cc1cc2oc(C(=O)Nc3ccc(S(=O)(=O)N4CCCCCC4)cc3)cc(=O)c2cc1C	2.24%
CCOc1ccc(-n2nc3ccc(NC(=O)COc4ccc(OC)cc4)cc3n2)cc1	-11.6%
CC(C)c1ccc(OC(=O)c2cc(-c3ccccc3)on2)cc1	-7.8%
Cc1ccc(NC(=O)Nc2nnc(N(C)Cc3ccccc3)s2)c(C)c1	9.16%
CCCSc1ncc(Cl)c(C(=O)Nc2c(C(=O)Nc3ccc(C)cc3)oc3ccccc23)n1	19.3%
CC(=O)N1CCc2c(sc3nc(SCC(C)C)n(-c4ccc(F)c(Cl)c4)c(=O)c23)C1	-19.8%
COC(=O)c1ccc(C2C(C(=O)Nc3ccccc3)=C(C)Nc3nc4ccccc4n32)cc1 (stereo unspecified)	-1.59%
CCc1nc(Oc2cccc(F)c2)c2oc3ccccc3c2n1	9.91%
COc1cc(C)cc2oc(=O)c(CC(=O)NCc3cccc(Cl)c3)c(C)c12	-0.0751%
Cc1ccc(NC(=O)CSc2nc(-c3ccco3)cc(C(F)(F)F)n2)cc1	-2.56%

Structure (SMILES)	inhibition
Cc1ccc(C)c(OC(=O)CSc2nnc(CNC(=O)c3ccccc3)o2)c1	5.63%
CC1=C(c2ccc(C)cc2)S(=O)(=O)NC1=NCCCN1CCN(c2ccc(F)cc2)CC1	-1.12%
N#Cc1c(-c2ccccc2)nc(SCc2cccc(Cl)c2)[nH]c1=O	active: 30.4%
O=c1cc(-c2ccccc2)n2c(SCc3ccc(F)cc3)nnc2[nH]1	-11.9%
Cc1cn2c(=O)cc(COC(=O)COc3ccccc3C)nc2s1	-5.06%
CCN(Cc1ccccc1)C(=O)Cn1c(=O)n(-c2ccc(C)c(C)c2)c(=O)c2c(C)c(C)sc21	-1.61%
O=c1oc2ccccc2cc1-c1cn2cc(Cc3ccc(Cl)cc3)sc2n1	4.09%
O=C(Nc1cccc(C(F)(F)F)c1)c1cc2ccc3cccnc3c2[nH]1	1.27%
COc1ccc(CNc2oc(-c3ccc(COc4ccccc4C)o3)nc2C#N)cc1	16.9%
CC(C)(C)CC(=O)Nc1cc2c3c(c1)CCC(=O)N3CCC2	active: 35.3%
COc1cc(OC)cc(C(=O)Nc2ccc(S(=O)(=O)Nc3nc(C)cc(C)n3)cc2)c1	active: 33.5%
CCn1cc(C(=O)N2CCN(c3ccccc3F)CC2)c(=O)c2cc(S(=O)(=O)N(C)C)ccc21	-15.6%
CCN1CCN(C(=O)CS(=O)Cc2nc(-c3ccc(OC)cc3)oc2C)CC1 (stereo unspecified)	active: 39.9%
CC(NC(=O)c1ccccc1Cl)C(=O)Nc1ccc2c(c1)OCO2 (stereo unspecified)	active: 72.7%
CC(=O)N1CCN(C(=O)c2cc(S(=O)(=O)N(C)Cc3ccccc3)ccc2Cl)CC1	active: 30.1%
COc1cccc(N2CCN(C(=O)Cn3c(-c4cccs4)cc4ccccc43)CC2)c1	-5.19%
COc1ccc(CN2C(=O)c3ccccc3C2C(=O)NCCc2ccccc2)c(OC)c1 (stereo unspecified)	22.3%
CC(C)CCNC(=O)CN1N=C(c2ccc(Cl)cc2)CCC1=O	-6.51%
CC1=C(C(=O)Nc2ccc(C)cc2C)C(c2cccs2)n2nc(SCc3ccccc3Cl)nc2N1 (stereo unspecified)	-9.59%
O=C(Nc1ccc(-c2cn3cccnc3n2)cc1)c1cc(Br)ccc1Cl	9.54%
CCc1ccccc1NC(=O)c1cnc2sc(N3CCCC3)nn2c1=O	11.7%
CCOc1ccc(-c2nn(CC(=O)NC3CCCC3)c3c2cnc2ccc(F)cc23)cc1	-8.13%
COc1cccc(C(=O)Nc2cccc(-c3cn4c(C)csc4n3)c2)c1OC	15.5%
Cc1cccc(N2CCN(C(=O)CCn3c(=O)c4cccn4c4cccnc43)CC2C)c1 (stereo unspecified)	1.81%

Structure (SMILES)	inhibition
COc1ccc(Cl)cc1NC(=O)NCCN1CCCCC1	active: 58.2%
Cc1cccc(-c2nc3c4ccccc4nc(N4CCN(c5cc(C)ccc5C)CC4)n3n2)c1	-16.3%
COc1ccc(-c2cc(C(F)(F)F)nc(SCC(=O)NCCc3ccccc3)n2)cc1OC	10.4%
CCc1sc(Nc2cccc(C)c2C)nc1-c1cc2cccc(OC)c2oc1=O	2.37%
COc1ccc(F)c(-c2nc(CN3CCC(c4ccccc4)CC3)c(C)o2)c1	active: 93.5%
COc1cc(OC)cc(-n2c(=O)c3sccc3n(Cc3c(C)cc(C)cc3C)c2=O)c1	-1.51%
Cc1ccc(NC(=O)c2cc(S(=O)(=O)N3CCc4ccccc43)ccc2F)cc1Cl	0.88%
COc1ccc(NC(=O)CSc2nc3ccccc3n2Cc2cccc(OC)c2)cc1	-20.8%
CCOc1ccc(NC(=O)C2CCN(c3nnc(-n4c(C)ccc4C)s3)CC2)cc1	2.91%
Cc1cc(S(=O)(=O)Nc2ccc(-c3ccc(N4CCCCCC4)nn3)cc2)c(C)cc1Cl	14%
Cc1nc(-c2cccnc2)sc1CCNS(=O)(=O)c1ccc(F)cc1	0.663%
COCCNC(=O)c1cccc(-n2c(C)nc3cccnc32)c1	-5.98%
CC(=O)Nc1ccc(OCC(O)CN2CCN(c3ccc(F)cc3)CC2)cc1 (stereo unspecified)	active: 44.6%
CCc1ccccc1Nc1cc(C(=O)NC(C)c2ccccc2)c2ccccc2n1 (stereo unspecified)	-12%
COc1cc(C2c3c(-c4cc(C)ccc4O)n[nH]c3C(=O)N2CCCO)ccc1OCCC(C)C (stereo unspecified)	-22.2%
CCCc1nn2c(=O)cc(COC(=O)c3ccccc3NC(=O)c3ccc(Cl)cc3)nc2s1	18.4%
CCOC(=O)c1ccccc1NC(=O)N1CCC(CN2CCCCC2)CC1	3.34%
CCOc1ccc(NC(=O)CN2CCCN(Cc3cc(C)ccc3C)S2(=O)=O)cc1	8.42%
CCCC(=O)Nc1ccc(-c2nc3ncccc3o2)cc1C	-12.4%
CCOC(=O)c1cccc(NC(=O)CCn2nc(C)c(S(=O)(=O)N3CCCCC3)c2C)c1	7.51%
Cc1ccc(NC(=O)C(C)Sc2nc(=O)cc(N)n2-c2ccccc2)cc1 (stereo unspecified)	6.89%
Cn1cc(S(=O)(=O)c2cccc(Cl)c2)c(=O)c2cc(F)c(N3CCN(c4ccccc4)CC3)cc21	23.6%
Cc1ccc2c(=O)c(C(=O)c3cccc(Cl)c3)cn(CC(=O)Nc3ccc4c(c3)OCCO4)c2n1	-3.79%
O=C(CSc1nnc(NC(=O)Nc2ccccc2)s1)Nc1cccc(F)c1	21.7%
